In paper PMC11760013 one finds binding data, which are given here for two molecules.

The chains behind the UniProt entries cited, without tags or fusion partners. Where a name states a change or a piece, a line headed by the entry shows the natural chain unless it says otherwise. A line that says so, or that is headed by a name, gives the form on record, which may keep a tag or linker. Residues count along the entry.
UniProt Q9Y2G2: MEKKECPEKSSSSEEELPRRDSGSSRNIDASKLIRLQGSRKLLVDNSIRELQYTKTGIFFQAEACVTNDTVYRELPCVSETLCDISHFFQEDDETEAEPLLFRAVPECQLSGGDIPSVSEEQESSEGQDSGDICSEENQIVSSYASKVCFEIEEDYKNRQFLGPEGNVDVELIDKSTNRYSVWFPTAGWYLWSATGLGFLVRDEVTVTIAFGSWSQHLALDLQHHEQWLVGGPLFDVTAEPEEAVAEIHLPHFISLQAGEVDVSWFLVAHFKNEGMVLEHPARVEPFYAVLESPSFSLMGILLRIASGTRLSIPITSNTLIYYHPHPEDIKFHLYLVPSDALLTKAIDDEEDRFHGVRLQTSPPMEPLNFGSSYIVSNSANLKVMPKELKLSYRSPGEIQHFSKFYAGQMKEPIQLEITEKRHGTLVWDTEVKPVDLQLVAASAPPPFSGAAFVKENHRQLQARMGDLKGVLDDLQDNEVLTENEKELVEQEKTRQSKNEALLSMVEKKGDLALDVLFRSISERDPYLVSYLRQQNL
CARD8^NT, N-terminal Flag tag: residues 1-296 of Q9Y2G2
FIIND of CARD8 (HEK293T construct): residues 161-446 of Q9Y2G2
ZU5 of CARD8 (HEK293T construct): residues 161-296 of Q9Y2G2
UniProt Q86TI2: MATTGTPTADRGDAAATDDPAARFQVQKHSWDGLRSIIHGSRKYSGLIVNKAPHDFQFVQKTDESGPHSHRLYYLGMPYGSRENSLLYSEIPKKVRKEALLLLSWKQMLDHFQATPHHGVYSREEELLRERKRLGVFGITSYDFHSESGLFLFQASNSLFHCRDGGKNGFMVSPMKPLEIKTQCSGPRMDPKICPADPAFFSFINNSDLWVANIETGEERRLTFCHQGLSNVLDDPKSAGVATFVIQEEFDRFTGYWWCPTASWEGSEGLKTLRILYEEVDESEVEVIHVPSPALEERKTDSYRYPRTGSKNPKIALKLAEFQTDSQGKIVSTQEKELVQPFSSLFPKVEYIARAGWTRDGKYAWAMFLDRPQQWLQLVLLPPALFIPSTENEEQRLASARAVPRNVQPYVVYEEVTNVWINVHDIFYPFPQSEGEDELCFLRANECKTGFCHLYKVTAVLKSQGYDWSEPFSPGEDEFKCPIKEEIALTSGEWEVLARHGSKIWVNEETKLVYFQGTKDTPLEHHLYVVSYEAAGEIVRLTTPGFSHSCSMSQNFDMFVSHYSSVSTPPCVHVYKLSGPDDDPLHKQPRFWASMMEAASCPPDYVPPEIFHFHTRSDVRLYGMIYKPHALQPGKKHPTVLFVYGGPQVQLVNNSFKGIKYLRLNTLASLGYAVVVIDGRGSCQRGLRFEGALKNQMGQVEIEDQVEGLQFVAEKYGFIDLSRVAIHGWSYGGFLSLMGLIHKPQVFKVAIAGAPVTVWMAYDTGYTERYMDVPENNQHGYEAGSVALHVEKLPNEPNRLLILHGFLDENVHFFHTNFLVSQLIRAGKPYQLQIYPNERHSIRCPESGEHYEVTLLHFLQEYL

Common to all, as to assay: co-IP; HEK293T co-transfected, lysed 48 h later in 50 mM Tris-HCl pH 7.4, 150 mM NaCl, 1% NP-40, 1 mM EDTA, 10% glycerol; IP with anti-Flag M2 agarose 4 h at 4 °C; immunoblot; the NT-CT pairs also in DPP8/9 double-knockout HEK293T (binding unaffected)
Background: A western blot detects proteins with antibodies after separation by electrophoresis.

Test [1] concerns the target T1, cleavage-resistant mNLRP1b S984A, N-terminal Flag tag (mouse) (UniProt Q2LKW6).
T1 sequence: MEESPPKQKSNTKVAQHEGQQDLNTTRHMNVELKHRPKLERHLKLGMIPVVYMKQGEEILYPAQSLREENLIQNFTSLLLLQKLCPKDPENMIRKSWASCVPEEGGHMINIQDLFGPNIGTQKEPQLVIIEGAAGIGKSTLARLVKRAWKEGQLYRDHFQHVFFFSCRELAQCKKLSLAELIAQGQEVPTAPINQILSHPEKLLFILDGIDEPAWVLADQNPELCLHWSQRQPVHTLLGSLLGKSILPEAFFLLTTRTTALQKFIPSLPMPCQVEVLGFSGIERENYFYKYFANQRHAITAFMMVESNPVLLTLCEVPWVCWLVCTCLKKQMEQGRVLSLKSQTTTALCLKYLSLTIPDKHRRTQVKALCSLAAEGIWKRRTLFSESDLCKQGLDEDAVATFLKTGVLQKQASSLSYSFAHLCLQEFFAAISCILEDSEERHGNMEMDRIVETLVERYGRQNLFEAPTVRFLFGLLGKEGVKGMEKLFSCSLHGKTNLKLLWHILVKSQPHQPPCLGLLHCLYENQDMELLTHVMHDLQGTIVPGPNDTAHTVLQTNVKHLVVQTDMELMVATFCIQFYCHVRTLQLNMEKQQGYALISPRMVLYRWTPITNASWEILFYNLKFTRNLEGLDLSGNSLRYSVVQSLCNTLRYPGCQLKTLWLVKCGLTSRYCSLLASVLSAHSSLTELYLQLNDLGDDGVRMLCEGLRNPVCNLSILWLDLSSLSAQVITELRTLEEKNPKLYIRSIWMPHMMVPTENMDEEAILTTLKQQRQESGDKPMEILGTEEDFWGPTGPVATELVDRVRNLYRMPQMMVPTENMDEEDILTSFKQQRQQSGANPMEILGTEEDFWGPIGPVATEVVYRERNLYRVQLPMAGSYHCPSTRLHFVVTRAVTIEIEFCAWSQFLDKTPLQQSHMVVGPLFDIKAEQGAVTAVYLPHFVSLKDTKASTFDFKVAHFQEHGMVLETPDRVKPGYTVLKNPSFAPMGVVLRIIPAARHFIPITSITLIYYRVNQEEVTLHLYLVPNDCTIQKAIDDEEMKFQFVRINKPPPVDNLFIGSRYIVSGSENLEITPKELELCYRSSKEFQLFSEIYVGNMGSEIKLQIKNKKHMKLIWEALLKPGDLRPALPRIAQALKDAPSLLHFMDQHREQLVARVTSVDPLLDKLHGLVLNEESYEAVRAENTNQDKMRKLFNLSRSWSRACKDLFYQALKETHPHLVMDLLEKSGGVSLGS

The target of test [2] is T2, FIIND of mNLRP1b (HEK293T construct) (mouse) (UniProt Q2LKW6).
T2 sequence: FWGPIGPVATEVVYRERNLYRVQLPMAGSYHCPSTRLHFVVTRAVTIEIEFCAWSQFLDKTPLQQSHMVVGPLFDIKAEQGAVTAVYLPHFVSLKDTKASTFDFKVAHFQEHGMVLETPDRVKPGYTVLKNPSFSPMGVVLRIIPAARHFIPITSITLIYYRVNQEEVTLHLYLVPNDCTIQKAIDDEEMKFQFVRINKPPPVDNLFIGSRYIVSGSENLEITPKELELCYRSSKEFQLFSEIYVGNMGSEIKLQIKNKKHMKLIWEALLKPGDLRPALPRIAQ

For test [3], the target named is ZU5 of CARD8 (HEK293T construct) (UniProt Q9Y2G2).
The target in test [4] is CARD8^NT, N-terminal Flag tag (UniProt Q9Y2G2).
The target in test [5] is T3, FIIND of hNLRP1 (HEK293T construct) (human) (UniProt Q9C000).
T3 sequence: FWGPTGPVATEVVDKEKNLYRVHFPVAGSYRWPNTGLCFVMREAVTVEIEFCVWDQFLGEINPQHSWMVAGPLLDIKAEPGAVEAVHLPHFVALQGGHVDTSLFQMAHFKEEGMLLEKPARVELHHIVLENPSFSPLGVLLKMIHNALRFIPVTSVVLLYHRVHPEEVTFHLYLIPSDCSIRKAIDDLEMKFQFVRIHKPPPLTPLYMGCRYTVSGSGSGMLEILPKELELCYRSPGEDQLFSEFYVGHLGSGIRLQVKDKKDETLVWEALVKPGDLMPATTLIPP

Test [6] deals with FIIND of CARD8 (HEK293T construct) (UniProt Q9Y2G2).
Test [7] has as its target wild-type CARD8, N-terminal Flag tag (UniProt Q9Y2G2).
Test [8] has as its target cleavage-resistant CARD8 S297A, N-terminal Flag tag (UniProt Q9Y2G2).
Test [9] has as its target T4, wild-type murine NLRP1b, N-terminal Flag tag (mouse) (UniProt Q2LKW6).
T4 sequence: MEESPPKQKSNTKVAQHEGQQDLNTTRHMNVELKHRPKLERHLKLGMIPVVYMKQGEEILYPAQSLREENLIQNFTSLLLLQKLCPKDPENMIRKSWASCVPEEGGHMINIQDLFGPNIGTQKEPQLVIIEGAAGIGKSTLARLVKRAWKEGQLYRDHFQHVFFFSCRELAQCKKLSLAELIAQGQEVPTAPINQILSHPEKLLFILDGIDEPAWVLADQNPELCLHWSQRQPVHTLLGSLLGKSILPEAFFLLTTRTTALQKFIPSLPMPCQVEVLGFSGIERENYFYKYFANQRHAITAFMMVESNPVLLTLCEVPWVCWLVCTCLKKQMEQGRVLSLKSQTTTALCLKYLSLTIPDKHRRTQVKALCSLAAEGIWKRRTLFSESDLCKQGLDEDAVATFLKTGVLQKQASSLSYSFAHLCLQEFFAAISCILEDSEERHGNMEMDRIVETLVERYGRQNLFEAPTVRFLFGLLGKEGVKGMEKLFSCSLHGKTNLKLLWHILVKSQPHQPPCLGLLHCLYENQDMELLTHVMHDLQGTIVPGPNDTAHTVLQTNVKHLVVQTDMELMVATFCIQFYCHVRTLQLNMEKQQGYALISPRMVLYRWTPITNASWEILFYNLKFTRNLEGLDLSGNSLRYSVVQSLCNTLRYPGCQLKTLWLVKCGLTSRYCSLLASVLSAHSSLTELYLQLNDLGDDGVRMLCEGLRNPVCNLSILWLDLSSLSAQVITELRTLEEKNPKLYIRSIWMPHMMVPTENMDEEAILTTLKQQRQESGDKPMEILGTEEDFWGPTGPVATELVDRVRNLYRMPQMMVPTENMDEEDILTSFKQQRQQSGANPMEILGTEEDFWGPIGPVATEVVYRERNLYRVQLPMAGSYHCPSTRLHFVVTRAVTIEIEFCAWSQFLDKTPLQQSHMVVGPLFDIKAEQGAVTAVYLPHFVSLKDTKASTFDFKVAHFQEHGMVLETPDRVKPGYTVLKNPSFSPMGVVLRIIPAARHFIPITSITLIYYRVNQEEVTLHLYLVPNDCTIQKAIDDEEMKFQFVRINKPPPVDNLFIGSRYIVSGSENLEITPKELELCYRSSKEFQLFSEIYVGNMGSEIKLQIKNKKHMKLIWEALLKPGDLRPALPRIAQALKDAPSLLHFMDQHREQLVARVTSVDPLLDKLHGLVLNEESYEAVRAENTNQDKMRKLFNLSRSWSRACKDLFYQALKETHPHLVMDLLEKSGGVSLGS

In test [10] the target is T5, Linker3 of mNLRP1b (HEK293T construct) (mouse) (UniProt Q2LKW6).
T5 sequence: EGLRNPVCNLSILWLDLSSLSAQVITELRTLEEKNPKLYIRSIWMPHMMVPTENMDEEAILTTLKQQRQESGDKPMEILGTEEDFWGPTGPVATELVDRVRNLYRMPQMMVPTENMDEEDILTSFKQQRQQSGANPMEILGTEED

Results are given in words; binding and its absence hold for the method and conditions named. Binding seen in cells or lysates may run through a third protein. Some binding calls cover weakened binding; strength is not graded here. For some of these results: Sequences can lack the tags named with a protein.

In the case of “dipeptidyl peptidase 9 (DPP9) (from UniProt Q86TI2 1-863) (enzyme)”, the binding entry in test [1], in [2], in [3], in test [4], in [5] and in test [6] was “binds” in each case. The binding entry in [7], in test [8] and in [9] was “binds” throughout.

B1: CARD of mNLRP1b (HEK293T construct) (domain or fragment, UniProt Q2LKW6 1143-1226)
chain: HFMDQHREQLVARVTSVDPLLDKLHGLVLNEESYEAVRAENTNQDKMRKLFNLSRSWSRACKDLFYQALKETHPHLVMDLLEKS
With B1, the binding entry in test [10] is “no binding”.
